# PubChem BioAssay AID1347165 (National Center for Advancing Translational Sciences (NCATS), 2019)
# About 5,700 (2.6%) of roughly 220,000 compounds were called active. The inconclusive results got no clear call from the source; some entries with a clear call stand among them for comparison. Calls come from the whole dose curve; as a rule, active = well fitted inhibition curve with a large enough effect; inconclusive = small, poorly fitted or top-dose-only effect; inactive = no such curve, though single readings can be large or run the other way. Potencies of inconclusive entries are doubtful fits and often do not repeat.
# Target: Lysine-specific demethylase 5B (Homo sapiens) (UniProt Q9UGL1)
# Assay: Primary screen for KDM5B Histone Demethylases FDH-coupled qHTS; note: nearly all actives have a fitted effect of over 70% in size; for activity change, negative = inhibition: 0% is about no effect
# Conditions: FDH-coupled NADH fluorescence (FDH is formaldehyde dehydrogenase); activity change, negative = inhibition: at 57.7 µM (top of the series) unless noted
# Summary of the method: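 Measured: NADH fluorescence change, 30 min, RT. System: KDM5BΔAP 200 nM final, H3K4me3 peptide, α-KG, Fe(II), ascorbate, NAD⁺ plus FDH, pH 7.5 HEPES. Compounds: titrated, 10 min pre-incubation with enzyme.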
# Potency is the fitted concentration of half-maximal effect; tags give direction and shape of the fitted curve.
# Chain of UniProt Q9UGL1 (Q9UGL1 whole entry, looked up): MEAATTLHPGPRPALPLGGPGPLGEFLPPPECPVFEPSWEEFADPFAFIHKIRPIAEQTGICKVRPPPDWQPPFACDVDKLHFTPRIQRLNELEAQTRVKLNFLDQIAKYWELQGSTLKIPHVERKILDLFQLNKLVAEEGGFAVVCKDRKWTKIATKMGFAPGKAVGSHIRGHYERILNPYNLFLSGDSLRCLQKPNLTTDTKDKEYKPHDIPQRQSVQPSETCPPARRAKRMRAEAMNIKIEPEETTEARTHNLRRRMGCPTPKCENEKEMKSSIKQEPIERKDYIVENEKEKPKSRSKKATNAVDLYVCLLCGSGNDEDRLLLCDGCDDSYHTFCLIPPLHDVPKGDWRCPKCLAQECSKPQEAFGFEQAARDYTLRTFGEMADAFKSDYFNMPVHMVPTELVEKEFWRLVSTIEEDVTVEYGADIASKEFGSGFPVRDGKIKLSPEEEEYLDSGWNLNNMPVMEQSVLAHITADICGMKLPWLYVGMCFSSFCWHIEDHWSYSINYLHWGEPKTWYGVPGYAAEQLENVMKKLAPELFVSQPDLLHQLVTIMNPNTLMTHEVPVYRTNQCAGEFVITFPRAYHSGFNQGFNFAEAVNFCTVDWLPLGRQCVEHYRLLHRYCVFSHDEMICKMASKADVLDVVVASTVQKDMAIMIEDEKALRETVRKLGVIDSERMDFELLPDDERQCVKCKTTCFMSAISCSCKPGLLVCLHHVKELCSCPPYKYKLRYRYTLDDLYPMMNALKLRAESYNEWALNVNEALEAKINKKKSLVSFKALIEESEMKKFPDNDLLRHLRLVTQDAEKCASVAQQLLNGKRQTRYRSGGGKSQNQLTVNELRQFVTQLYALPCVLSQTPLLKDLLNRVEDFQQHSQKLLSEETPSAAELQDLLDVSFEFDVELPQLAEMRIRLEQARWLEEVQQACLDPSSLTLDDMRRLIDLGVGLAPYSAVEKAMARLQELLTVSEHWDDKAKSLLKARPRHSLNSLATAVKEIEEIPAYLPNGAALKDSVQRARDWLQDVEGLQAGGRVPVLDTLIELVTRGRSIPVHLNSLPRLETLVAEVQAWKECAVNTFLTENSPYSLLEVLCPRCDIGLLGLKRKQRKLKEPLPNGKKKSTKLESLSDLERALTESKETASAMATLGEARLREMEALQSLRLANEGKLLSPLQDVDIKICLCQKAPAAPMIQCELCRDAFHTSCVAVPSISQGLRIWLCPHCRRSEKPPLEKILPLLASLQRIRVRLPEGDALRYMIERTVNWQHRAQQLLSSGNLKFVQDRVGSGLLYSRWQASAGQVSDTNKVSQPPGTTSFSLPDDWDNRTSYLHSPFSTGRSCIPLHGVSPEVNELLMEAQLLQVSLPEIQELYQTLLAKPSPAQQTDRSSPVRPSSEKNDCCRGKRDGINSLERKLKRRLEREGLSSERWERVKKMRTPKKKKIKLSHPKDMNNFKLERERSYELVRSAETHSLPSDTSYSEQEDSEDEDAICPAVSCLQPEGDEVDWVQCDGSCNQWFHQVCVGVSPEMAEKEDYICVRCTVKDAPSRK
SMILES,Potency,"activity change, negative = inhibition"
COCCn1ccc2c(C3=CCOCC3)nc(-c3cccc(NC(C)=O)c3)cc21,active: 35.5 µM,
COCc1nc(C2CC(N)C2)cc(N2Cc3nc(C)n(C)c(=O)c3C2)n1 (stereo not given),"inconclusive: 22.4 µM [inhibitor, single point]",
Fc1ccc(CNc2nc3ccc(Cl)cc3n3nnnc23)cc1,"inconclusive: 15.8 µM [inhibitor, partial curve, poor fit]",
CN1c2cc(C(=O)Nc3ccc(C(F)(F)F)cc3)ccc2C(=O)N2CCCCCC21 (stereo not given),"inconclusive: 28.2 µM [inhibitor, partial curve, poor fit]",
CCOc1ccc(OCC(=O)Nc2c(C(=O)Nc3ccc(C)cc3)oc3ccccc23)cc1,"inconclusive: 14.1 µM [inhibitor, partial curve, poor fit]",
C=CCC1(C(=O)O)CCCN(Cc2cn[nH]c2C(=O)O)C1 (stereo not given),"inconclusive: 15.8 µM [inhibitor, partial curve]",
O=C(O)/C=C/c1cn(-c2ccccc2)nc1-c1cccs1,"inconclusive: 31.6 µM [inhibitor, partial curve, poor fit]",
CCOc1ccccc1NC(=O)Cn1c(N2CCN(c3ccccc3)CC2)nc(C)cc1=O,"inconclusive: 31.6 µM [inhibitor, single point]",
O=C(Nc1cccc(S(=O)(=O)N2CCCCC2)c1)C1=NN(c2ccccc2)C(=O)CC1,"inconclusive: 35.5 µM [inhibitor, single point]",
Cc1nc(SCC(=O)NC2(C#N)CCCC2)n(C2CCCC2)c1C,inactive,
CC(C)CCCNCCNC(=O)/C=N/O,inactive,
CC(C)CCNC(=O)c1cc(-c2cccs2)nc2ccccc12,"inconclusive: 28.2 µM [inhibitor, partial curve, poor fit]",
CCOc1ccc(CCNC(=O)c2ccc3nc(CC)c(CC)nc3c2)cc1,"inconclusive: 31.6 µM [inhibitor, partial curve, poor fit]",
Cc1ccc(-c2cc3c(=O)n(CCNC(=O)c4nccc5ccccc45)ccn3n2)c(C)c1,"inconclusive: 31.6 µM [inhibitor, single point]",
COc1ccccc1-c1ccccc1CN1CCC(C)(NC(C)=O)C1 (stereo not given),"inconclusive: 35.5 µM [inhibitor, single point]",
CCOC(=O)c1cn2nc(Oc3ccc(C(=O)OC)cc3)ccc2n1,"inconclusive: 14.1 µM [inhibitor, partial curve, poor fit]",
CC(C)c1noc(-c2ccn3c(CNC(=O)c4cccc(N(C)C)c4)nnc3c2)n1,active: 28.2 µM,
O=C(N/N=C/c1cccnc1)c1cc(-c2ccc(Br)cc2)nc2ccccc12,"inconclusive: 39.8 µM [inhibitor, single point]",
COc1ccc(C(=O)Nc2cccc(NC(=O)c3ccc(OC)cc3OC)n2)c(OC)c1,"inconclusive: 22.4 µM [inhibitor, partial curve, poor fit]",
CCc1ccccc1NC(=O)C1CCCN(c2nnc(-n3c(C)ccc3C)s2)C1 (stereo not given),,inconclusive: -45% [inhibitor]

SMILES,Potency,"activity change, negative = inhibition"
O=C(NCc1cccc(F)c1)c1ccc(N2CC3CC(C2)[C@H]2CCCC(=O)N2C3)nc1 (stereo not given in full),inactive,
O=C(NCc1ccccc1)N1CCC(N2CC3CC(C2)[C@H]2CCCC(=O)N2C3)CC1 (stereo not given in full),"inconclusive: 35.5 µM [inhibitor, partial curve, poor fit]",
NCc1ccc2cc[nH]c2c1,"inconclusive: 31.6 µM [inhibitor, single point]",
CC1CCN(C(=O)Cn2ncc3c4ccccc4n(Cc4ccc(Cl)cc4)c3c2=O)CC1,"inconclusive: 4.47 µM [inhibitor, full curve, poor fit]",
Cc1cccc(CNC(=O)c2ccc3c(c2)N(C)C2CCCCN2C3=O)c1 (stereo not given),"inconclusive: 35.5 µM [inhibitor, partial curve, poor fit]",
COc1ccc(-c2cc(C(=O)NCc3ccccc3)c3c(-c4ccccc4)[nH]nc3n2)cc1,"inconclusive: 31.6 µM [inhibitor, partial curve, poor fit]",
CN1CCCN(c2ccc(C(=O)N3CCC(N4CCOCC4)CC3)cn2)CC1,"inconclusive: 31.6 µM [inhibitor, partial curve, poor fit]",
COc1ccc2[nH]c3c(c2c1)CCNC31CCN(S(=O)(=O)c2c(C)noc2C)CC1,"inconclusive: 39.8 µM [inhibitor, single point]",
O=C(NCc1ccc2c(c1)OCO2)c1ccc(-c2csc(C3CC3)n2)cc1,"inconclusive: 39.8 µM [inhibitor, single point]",
COCC(=O)NC[C@@H]1C=C(C)[C@H](CC(=O)N2CCN(c3ccccn3)CC2)C[C@H]1C(C)C,active: 31.6 µM,
CCn1c(CN2CCOCC2)nc2cc(NC(=O)c3cc(OC)c(OC)c(OC)c3)ccc21,"inconclusive: 35.5 µM [inhibitor, single point]",
COc1ccc(-n2cc(CN3CCN(C)C(C)C3)c(-c3cccc(F)c3)n2)cc1 (stereo not given),active: 25.1 µM,
Fc1ccc(N/N=C/c2ccccc2Cl)c(F)c1,"inconclusive: 28.2 µM [inhibitor, single point]",
O=C(c1ccccc1)N1CCSc2ccc(Cl)cc21,inactive,
O=C1c2ccccc2NC(c2ccccc2)N1Cc1ccccc1 (stereo not given),"inconclusive: 22.4 µM [inhibitor, partial curve, poor fit]",
O=C(Nc1ccc(Cl)c2ncsc12)c1ccc(S(=O)(=O)N2CCCCC2)cc1,inactive,
CCNc1sc(C(C)=O)c(N)c1C#N,"inconclusive: 28.2 µM [inhibitor, partial curve, poor fit]",
Cn1c(=O)c2c(-c3ccccc3)n3c(c2n(C)c1=O)C(c1cccc(O)c1)OCC3 (stereo not given),"inconclusive: 20 µM [inhibitor, single point]",
O=C(Nc1c(N2CCCC2)c2ccccc2oc1=O)C1CC1,inactive,
COc1ccc(CCNC(=O)C(=O)NCC(c2ccco2)S(=O)(=O)c2ccccc2)cc1OC (stereo not given),"inconclusive: 10 µM [inhibitor, partial curve, poor fit]",
